Source: patent US7544708B2, “Azabicyclo derivatives as muscarinic receptor antagonists” (Ranbaxy Laboratories Limited, priority 2002, dated 2009)
Structures can show the parent of a compound that is named as a salt.

Test system: isolated rat bladder
Assay: Functional experiments using isolated rat bladder (carbachol concentration response)
Settings: isolated rat bladder strips, carbachol-induced contraction
Procedure: The bladder was cut into longitudinal strips (3 mm wide and 5-6 mm long) and mounted in 10 ml organ baths at 30° C., with one end connected to the base of the tissue holder and the other end connected to a polygraph through a force displacement transducer. […] At the end of equilibration period the stabilization of the tissue contractile response was assessed with 1 μmol/L of Carbachol consecutively for 2-3 times. Subsequently a cumulative concentration response curve to carbachol (10^−9 mol/L to 3×10^−5 mol/L) was obtained. After several washes, once the baseline was achieved, cumulative concentration response curve was obtained in presence of NCE (NCE added 20 min. prior to the second CRC).

`O=C(NCC1C2CNCC21)C(O)(c1ccccc1)C1CCC(F)(F)C1` (mixture of isomers) [Compound 14, (2R,2S) (1α,5α,6α)-N-[3-azabicyclo[3.1.0]hexyl-6-(aminomethyl)-yl]-2-hydroxy-2-(3,3-difluorocyclopentyl)-2-phenyl acetamide tartarate salt] and `O=C(NCC1C2CNCC21)C(O)(c1ccccc1)C1CCC1` [Compound 10, (2R,2S) (1α,5α,6α)-N-[3-azabicyclo[3.1.0]hexyl-6-(aminomethyl)-yl]-2-hydroxy-2-cyclobutyl-2-phenyl acetamide tartarate salt] are the same in “Functional Assay pKB” value: 8.73 ± 0.18 for the first, 8.73 ± 0.17 for the second.

`O=C(NC[C@H]1[C@@H]2CNC[C@@H]21)C(O)(c1ccccc1)C1CCCC1` (mixture of isomers) [Compound 1, (2R,2S) (1α,5α,6α)-N-[3-azabicyclo[3.1.0]hexyl-6-(aminomethyl)-yl]-2-hydroxy-2-cyclopentyl-2-phenyl acetamide] and `O=C(NC[C@H]1[C@@H]2CNC[C@@H]21)[C@](O)(c1ccccc1)C1CCCC1` [Compound 4, (2R)-(1α,5α,6α)-N-[3-azabicyclo[3.1.0]hexyl-6-(aminomethyl)-yl]-2-hydroxy-2-cyclopentyl 2-phenyl acetamide hydrochloride salt] are within 0.2 log units of each other in “Functional Assay pKB” value: 9.36 ± 0.17 for the first, 9.28 ± 0.2 for the second.

Going from `COC(C(=O)NC[C@H]1[C@@H]2CNC[C@@H]21)(c1ccccc1)C1CCCC1` (mixture of isomers) [Compound 7, (2R,2S) (1α,5α,6α)-N-[3-azabicyclo[3.1.0]hexyl-6-(aminomethyl)-yl]-2-methoxy-2-cyclopentyl-2-phenyl acetamide] to `O=C(NC[C@H]1[C@@H]2CNC[C@@H]21)[C@@](O)(c1ccccc1)C1CCCC1` [Compound 6, (2S)-(1α,5α,6α)-N-[3-azabicyclo[3.1.0]hexyl-6-(aminomethyl)-yl]-2-hydroxy-2-cyclopentyl 2-phenyl acetamide hydrochloride salt], the “Functional Assay pKB” value falls from 8.56 ± 0.11 to 7.8 ± 0.09.

With `Cc1ccc(O)c([C@H](CCN(C(C)C)C(C)C)c2ccccc2)c1` [Tolterodine, reference compound] the “Functional Assay pKB” value was 8.86 ± 0.12.

Same assay, conditions: isolated rat bladder strips, carbachol-induced contraction; hydrochloride salt

`O=C(NC[C@H]1[C@@H]2CNC[C@@H]21)C(O)(c1ccccc1)C1CCCC1` (mixture of isomers) [Compound 2, (2R,2S) (1α,5α,6α)-N-[3-azabicyclo[3.1.0]hexyl-6-(aminomethyl)-yl]-2-hydroxy-2-cyclopentyl-2-phenyl acetamide hydrochloride salt] was tested, and the “Functional Assay pKB” value was 9.16 ± 0.18.
